# Publication PMC4336329 (PLoS ONE, 2015)
# In all, about 310,000 compounds went through this assay and about 14,000 (4.5%) showed an effect of 50% or more. The effect is printed as a negative number. This is one part of the list.
# Target: human ether-à-go-go-related gene (hERG) potassium channel (human, UniProt Q12809)
# Assay: primary screen, population patch clamp on CHO cells stably expressing hERG
# 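Further: peak tail current of the secondary pulse compared with the same well before compound.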
# Chain of human ether-à-go-go-related gene (hERG) potassium channel (Q12809 whole entry, looked up): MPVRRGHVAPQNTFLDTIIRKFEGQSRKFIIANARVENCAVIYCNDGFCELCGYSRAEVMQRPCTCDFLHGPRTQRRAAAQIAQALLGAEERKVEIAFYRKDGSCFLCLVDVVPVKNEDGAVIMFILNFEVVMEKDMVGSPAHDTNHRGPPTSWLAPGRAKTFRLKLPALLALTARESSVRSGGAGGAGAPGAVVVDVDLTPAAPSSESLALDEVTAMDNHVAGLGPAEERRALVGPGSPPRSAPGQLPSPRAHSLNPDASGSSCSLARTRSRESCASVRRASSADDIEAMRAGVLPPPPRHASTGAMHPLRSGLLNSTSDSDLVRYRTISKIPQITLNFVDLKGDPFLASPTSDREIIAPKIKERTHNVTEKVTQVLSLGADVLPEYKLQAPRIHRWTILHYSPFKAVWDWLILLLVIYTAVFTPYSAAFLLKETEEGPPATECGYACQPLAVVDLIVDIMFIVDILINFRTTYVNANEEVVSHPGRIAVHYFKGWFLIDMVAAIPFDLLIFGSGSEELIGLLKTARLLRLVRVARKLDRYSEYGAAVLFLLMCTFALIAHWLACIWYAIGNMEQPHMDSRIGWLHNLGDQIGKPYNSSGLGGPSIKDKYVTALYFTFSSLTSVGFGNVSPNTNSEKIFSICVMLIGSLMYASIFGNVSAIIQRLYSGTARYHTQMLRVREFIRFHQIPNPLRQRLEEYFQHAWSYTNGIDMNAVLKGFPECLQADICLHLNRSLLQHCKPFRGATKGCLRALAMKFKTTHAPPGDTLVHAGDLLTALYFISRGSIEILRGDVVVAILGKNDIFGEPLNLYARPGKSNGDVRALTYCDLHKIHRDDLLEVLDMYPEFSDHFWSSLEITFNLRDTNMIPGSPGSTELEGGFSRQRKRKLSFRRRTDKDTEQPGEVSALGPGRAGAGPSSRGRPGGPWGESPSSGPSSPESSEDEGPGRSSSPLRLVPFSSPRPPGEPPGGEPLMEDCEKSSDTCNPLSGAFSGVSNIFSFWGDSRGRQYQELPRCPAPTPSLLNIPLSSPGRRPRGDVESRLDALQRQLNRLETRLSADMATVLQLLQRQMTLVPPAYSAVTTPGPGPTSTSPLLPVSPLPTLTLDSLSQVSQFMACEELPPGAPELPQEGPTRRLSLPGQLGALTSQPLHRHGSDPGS
row,SMILES,"hERG current change (%, negative = inhibition) at 10uM [%]"
1,CCc1nc2ccccc2n1CC(=O)N1CCN(Cc2ccccc2)CC1,-61.5
2,CN(C)C(=O)N1CCCC(C(=O)NCc2cccs2)C1 (stereo not drawn),1.62
3,CCOC(=O)c1cnc(-n2[nH]c(C)cc2=O)[nH]c1=O,5.83
4,CCOC(=O)N1CCC(NC(=O)CC2C(=O)NCCN2Cc2ccccc2F)CC1 (stereo not drawn),11.8
5,COc1ccccc1NC(=O)N(Cc1cccs1)Cc1cc2cc3c(cc2[nH]c1=O)OCO3,-5.32
6,Cc1ccc(-c2ccc(=O)n(Cc3c(F)cccc3Cl)n2)cc1,9.18
7,COc1ccc2[nH]c3c(c2c1)CCN1C(=O)N([C@@H](C)C(=O)NC2CCCCC2C)C(=O)[C@]31C (stereo partly drawn),-6.9
8,Cc1ccc(N(CC(=O)NC(C)(C)C)C(=O)CS(=O)CC(=O)Nc2ccc(F)cc2)cc1 (stereo not drawn),20
9,O=C1CCc2cc(S(=O)(=O)Nc3ccccc3F)cc3c2N1CCC3,-17.9
10,Cc1c(C(=O)N2CC(C)OC(C)C2)[nH]c2ccc(Br)cc12 (stereo not drawn),-9.46
11,CCCC(C)NS(=O)(=O)c1ccccc1 (stereo not drawn),-18.4
12,Cc1ccc(C)c(N/N=C2\CCCNC2=O)c1,-25.2
13,CCOC(=O)c1sc(=NC(=O)c2ccccc2Br)n(C)c1C,-6.52
14,CC1(C)Cc2c(sc3c2C(=O)N(c2ccccc2)C2=NCCCN23)CO1,3.7
15,O=C(Nc1ccc2oc(-c3cccnc3)nc2c1)c1cc2ccccc2o1,6.16
16,COc1ccc(-c2[nH]ncc2CN2CCC(N3CCSCC3)CC2)c(F)c1,1.98
17,O=C(OCc1ccc(Br)cc1)c1ccncc1,5.25
18,O=C(O)c1cccc(NC(=S)N/N=C/c2c[nH]c3ccccc23)c1,18
19,COc1ccc(C(=O)NC(=S)NC(C)C)cc1Br,12.9

row,SMILES,"hERG current change (%, negative = inhibition) at 10uM [%]"
1,NC(=O)C1CCN(CC(O)CSc2ccc(F)cc2)CC1 (stereo not drawn),0.126
2,C#CCOCCOCCOCCNc1nc(N2CCN(C(=O)[C@H]([C@@H](C)CC)n3cc([C@@H](N)CC(C)C)nn3)CC2)nc(N2CCN(C(=O)[C@H](Cc3ccc(O)cc3)n3cc([C@@H](N)C(C)CC)nn3)CC2)n1.Cl (stereo partly drawn),2.94
3,CCN(CC)c1ccc(S(=O)(=O)N2CCOCC2)cc1NC(=O)CN1C(=O)NC2(CCCC2)C1=O,-26.3
4,Cc1[nH]nc2c1C(c1ccccn1)N(c1ccc(Br)cc1)C2=O (stereo not drawn),-23.4
5,Cc1cccc(OCCCCCn2ccnc2)c1,-21.7
6,CCOc1ccc(-c2nc3n(c(=O)c2C#N)CCS3)cc1,11.8
7,Cc1cccc(NC(=O)C(C)SCc2nc3sc4c(c3c(=O)[nH]2)CCCC4)n1 (stereo not drawn),-6.66
8,CN(C)/C=C1\C(=O)NN=C1C(F)(F)F,4.44
9,COc1ccc(OCc2nnc(SCC(=O)Nc3ccccc3C#N)o2)cc1,-22.5
10,Cc1ccc(S(=O)(=O)n2nccc2-c2c(-c3ccc(Cl)cc3)noc2C)cc1,4.61
11,COC(=O)CCC(=O)Nc1sc(C)c(C)c1C(N)=O,19.3
12,CS(=O)(=O)NCCCCCCNS(C)(=O)=O,2.81
13,COc1ccc(OCC(N)=O)cc1,8.9
14,OCC12COC3c4ccccc4C(OC1)N32 (stereo not drawn),4.86
15,O=C(O)c1cccc(N/N=C/c2cccs2)c1,-7.16
16,COc1ccc(C(=O)C2CCCN(C(=O)CCNC(C)=O)C2)cc1OC (stereo not drawn),20.3
17,Cc1ccc(C)c(NC(=O)Cc2nc(CCl)cs2)c1,-14.1
18,Cc1ccc(F)cc1NC(=O)C12CC3CC(C1)CC(n1cnc([N+](=O)[O-])n1)(C3)C2,-52.8
19,O=C(CSc1nc(Nc2ccccc2)nc(N2CCOCC2)n1)Nc1cccc([N+](=O)[O-])c1,6.17

row,SMILES,"hERG current change (%, negative = inhibition) at 10uM [%]"
1,COc1ccc(NS(=O)(=O)c2cccc(Cl)c2)cc1S(=O)(=O)N1CCCCC1,7.81
2,CCOC(=O)C1=C(C)Nc2ncnn2C1c1ccc2c(c1)OCO2 (stereo not drawn),1.81
3,O=C(O)CCCCCCC1C(=O)NC(=O)N1CCC(O)C1CCCCC1 (stereo not drawn),-6.49
4,O=C(Nc1ccc(Cl)cc1Cl)C1CCC(=O)N1Cc1ccccc1Cl (stereo not drawn),-2.67
5,COc1ccccc1NC(=O)N(CCN1CCOCC1)Cc1cc2cc(C)cc(C)c2[nH]c1=O,-33.2
6,CCOC(=O)C1CCN(Cc2ccc(OC)c(OCc3ccccc3)c2)CC1,-38.3
7,CCc1ccc(CCC(=O)Nc2ccccc2C(=O)O)o1,11
8,Cc1cc(CN2CCCC(C(=O)Nc3ccc(-c4nc5ccccc5[nH]4)cc3)C2)n[nH]1 (stereo not drawn),-14.2
9,COc1cccc(C(=O)Nc2cc(Cl)c(O)c(Cl)c2)c1,-2.64
10,CC1Cc2cc(S(=O)(=O)CCC(=O)N3CCN(c4ccccc4)CC3)ccc2N1C(=O)C1CC1 (stereo not drawn),-26.3
11,COC(=O)c1cc(=O)c2c(C)nc(C(Cl)(Cl)Cl)nc2[nH]1,-2.94
12,C[n+]1ccn(CC(=O)c2ccc(Cl)cc2)c1.[Br-],-3.61
13,CN(CC(=O)Nc1ccc(S(=O)(=O)N2CCCC2)cc1)Cc1ccc(Cl)c(Cl)c1,0.187
14,CCN(CC)CCNc1cc(C)c(C#N)c2nc3ccccc3n12,-20.6
15,CCOC(=O)C1CCN(C(=O)Nc2ccc(Cl)cc2)CC1,-10.5
16,O=C(CN1CCN(c2ccc(O)cc2)CC1)Nc1ccc(-c2ccccc2)cc1,-5.1
17,CC1=NN(CCc2ccccn2)C(=O)CC1,15.6
18,COC(=O)C1=C(c2cc3ccccc3s2)C[C@@H]2CC[C@H]1N2C(=O)NCc1ccco1,-20.8
19,Cc1cc(C)c(S(=O)(=O)N2CCCOC2CNC(=O)C(=O)NCc2ccncc2)c(C)c1 (stereo not drawn),-1.48
